{"source": "the supplement of paper PMC4604168 (melanoma cell lines)", "assay_in_all_cases": "cell count relative to DMSO control; melanoma cells; higher = more viable cells", "conditions_in_all_cases": "library dose: low library concentration; 72 h", "key": {"MZ2-MEL": {"tested_on": "MZ2-MEL"}, "MeWo": {"tested_on": "MeWo"}, "RPMI7951": {"tested_on": "RPMI7951"}, "RVH-421": {"tested_on": "RVH-421"}, "SkMel28": {"tested_on": "SkMel28"}, "SkMel30": {"tested_on": "SkMel30"}, "SkMel5": {"tested_on": "SkMel5"}, "UACC257": {"tested_on": "UACC257"}, "UACC62": {"tested_on": "UACC62"}}, "note": "The other results are listed elsewhere or left out. Repeats are few or missing, and single values can be far off.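 Note: cell number obtained by counting DAPI-stained nuclei in high-throughput microscope images with image analysis software, screen run in 1,536-well plates.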"}
{"smiles": "CO[C@H]1C[C@@H]2CC[C@@H](C)[C@@](O)(O2)C(=O)C(=O)N2CCCC[C@H]2C(=O)O[C@H]([C@H](C)C[C@@H]2CC[C@@H](OCCO)[C@H](OC)C2)CC(=O)[C@H](C)/C=C(\\C)[C@@H](O)[C@@H](OC)C(=O)[C@H](C)C[C@H](C)/C=C/C=C/C=C/1C", "note": "[everolimus] + CO[C@@H]1[C@H](N(C)C(=O)c2ccccc2)C[C@H]2O[C@]1(C)n1c3ccccc3c3c4c(c5c6ccccc6n2c5c31)C(=O)NC4 [Midostaurin] (first compound 0.02 µM, partner dose 0.08 µM)", "values": [{"measurement": "cell count", "setting": "MZ2-MEL", "value": 68.6, "unit": "%"}, {"measurement": "cell count", "setting": "MeWo", "value": 63.9, "unit": "%"}, {"measurement": "cell count", "setting": "RPMI7951", "value": 70.7, "unit": "%"}, {"measurement": "cell count", "setting": "RVH-421", "value": 84.9, "unit": "%"}, {"measurement": "cell count", "setting": "SkMel28", "value": 48.1, "unit": "%"}, {"measurement": "cell count", "setting": "SkMel30", "value": 65.6, "unit": "%"}, {"measurement": "cell count", "setting": "SkMel5", "value": 93.1, "unit": "%"}, {"measurement": "cell count", "setting": "UACC257", "value": 58.3, "unit": "%"}, {"measurement": "cell count", "setting": "UACC62", "value": 74.2, "unit": "%"}]}
{"smiles": "CO[C@H]1C[C@@H]2CC[C@@H](C)[C@@](O)(O2)C(=O)C(=O)N2CCCC[C@H]2C(=O)O[C@H]([C@H](C)C[C@@H]2CC[C@@H](OCCO)[C@H](OC)C2)CC(=O)[C@H](C)/C=C(\\C)[C@@H](O)[C@@H](OC)C(=O)[C@H](C)C[C@H](C)/C=C/C=C/C=C/1C", "note": "[everolimus] + Cn1cncc1[C@@](N)(c1ccc(Cl)cc1)c1ccc2c(c1)c(-c1cccc(Cl)c1)cc(=O)n2C [tipifarnib] (first compound 0.02 µM, partner dose 0.01 µM)", "values": [{"measurement": "cell count", "setting": "MZ2-MEL", "value": 69.9, "unit": "%"}, {"measurement": "cell count", "setting": "MeWo", "value": 68.7, "unit": "%"}, {"measurement": "cell count", "setting": "RPMI7951", "value": 79.6, "unit": "%"}, {"measurement": "cell count", "setting": "RVH-421", "value": 69.1, "unit": "%"}, {"measurement": "cell count", "setting": "SkMel28", "value": 62.4, "unit": "%"}, {"measurement": "cell count", "setting": "SkMel30", "value": 62, "unit": "%"}, {"measurement": "cell count", "setting": "SkMel5", "value": 111, "unit": "%"}, {"measurement": "cell count", "setting": "UACC257", "value": 60.2, "unit": "%"}, {"measurement": "cell count", "setting": "UACC62", "value": 58.3, "unit": "%"}]}
{"smiles": "CO[C@H]1C[C@@H]2CC[C@@H](C)[C@@](O)(O2)C(=O)C(=O)N2CCCC[C@H]2C(=O)O[C@H]([C@H](C)C[C@@H]2CC[C@@H](OCCO)[C@H](OC)C2)CC(=O)[C@H](C)/C=C(\\C)[C@@H](O)[C@@H](OC)C(=O)[C@H](C)C[C@H](C)/C=C/C=C/C=C/1C", "note": "[everolimus] + NCC(=O)Nc1ccc(-n2nc(C(F)(F)F)cc2-c2ccc3c(ccc4ccccc43)c2)cc1 [OSU03012] (first compound 0.02 µM, partner dose 1 µM)", "values": [{"measurement": "cell count", "setting": "MZ2-MEL", "value": 78.9, "unit": "%"}, {"measurement": "cell count", "setting": "MeWo", "value": 56.8, "unit": "%"}, {"measurement": "cell count", "setting": "RPMI7951", "value": 96.2, "unit": "%"}, {"measurement": "cell count", "setting": "RVH-421", "value": 87.5, "unit": "%"}, {"measurement": "cell count", "setting": "SkMel28", "value": 61.4, "unit": "%"}, {"measurement": "cell count", "setting": "SkMel30", "value": 64.7, "unit": "%"}, {"measurement": "cell count", "setting": "SkMel5", "value": 121, "unit": "%"}, {"measurement": "cell count", "setting": "UACC257", "value": 59.4, "unit": "%"}, {"measurement": "cell count", "setting": "UACC62", "value": 84.7, "unit": "%"}]}
{"smiles": "CO[C@H]1C[C@@H]2CC[C@@H](C)[C@@](O)(O2)C(=O)C(=O)N2CCCC[C@H]2C(=O)O[C@H]([C@H](C)C[C@@H]2CC[C@@H](OCCO)[C@H](OC)C2)CC(=O)[C@H](C)/C=C(\\C)[C@@H](O)[C@@H](OC)C(=O)[C@H](C)C[C@H](C)/C=C/C=C/C=C/1C", "note": "[everolimus] + Oc1nc(-c2ccc(C(F)(F)F)cc2)nc2c1CSCC2 [XAV939] (first compound 0.02 µM, partner dose 2 µM)", "values": [{"measurement": "cell count", "setting": "MZ2-MEL", "value": 74.7, "unit": "%"}, {"measurement": "cell count", "setting": "MeWo", "value": 66.5, "unit": "%"}, {"measurement": "cell count", "setting": "RPMI7951", "value": 78.7, "unit": "%"}, {"measurement": "cell count", "setting": "RVH-421", "value": 78.7, "unit": "%"}, {"measurement": "cell count", "setting": "SkMel28", "value": 50.5, "unit": "%"}, {"measurement": "cell count", "setting": "SkMel30", "value": 89.3, "unit": "%"}, {"measurement": "cell count", "setting": "SkMel5", "value": 73.3, "unit": "%"}, {"measurement": "cell count", "setting": "UACC257", "value": 65.2, "unit": "%"}, {"measurement": "cell count", "setting": "UACC62", "value": 57.8, "unit": "%"}]}
{"smiles": "CO[C@H]1C[C@@H]2CC[C@@H](C)[C@@](O)(O2)C(=O)C(=O)N2CCCC[C@H]2C(=O)O[C@H]([C@H](C)C[C@@H]2CC[C@@H](OCCO)[C@H](OC)C2)CC(=O)[C@H](C)/C=C(\\C)[C@@H](O)[C@@H](OC)C(=O)[C@H](C)C[C@H](C)/C=C/C=C/C=C/1C", "note": "[everolimus] + COc1cc(Nc2ncc(F)c(Nc3ccc4c(n3)NC(=O)C(C)(C)O4)n2)cc(OC)c1OC [Tamatinib] (first compound 0.02 µM, partner dose 0.4 µM)", "values": [{"measurement": "cell count", "setting": "MZ2-MEL", "value": 61.1, "unit": "%"}, {"measurement": "cell count", "setting": "MeWo", "value": 71.1, "unit": "%"}, {"measurement": "cell count", "setting": "RPMI7951", "value": 75.3, "unit": "%"}, {"measurement": "cell count", "setting": "RVH-421", "value": 85.3, "unit": "%"}, {"measurement": "cell count", "setting": "SkMel28", "value": 52.6, "unit": "%"}, {"measurement": "cell count", "setting": "SkMel30", "value": 67.4, "unit": "%"}, {"measurement": "cell count", "setting": "SkMel5", "value": 105, "unit": "%"}, {"measurement": "cell count", "setting": "UACC257", "value": 54.8, "unit": "%"}, {"measurement": "cell count", "setting": "UACC62", "value": 76.8, "unit": "%"}]}
